Laboratory results: PubChem BioAssay AID1346428 (National Center for Advancing Translational Sciences (NCATS), 2018)
Values joined by “and” are separate entries in the source; they are usually repeats but may differ in a detail not shown here. Equal values may be shown once. About 1,200 (2.5%) of roughly 48,000 compounds were called active. Not shown: some 2% with an inconclusive outcome.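 How the source made its calls: active means activation of at least 60% and not above a set upper limit (about 1 call in 100 departs from these limits); inconclusive means activation of 40% to 60%, or above that upper limit; inactive means activation under 40%.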 The list shows a part of the results.

These molecules were tested against Probable G-protein coupled receptor 32 (Homo sapiens) (UniProt O75388) (assay: qHTS for Agonists of Human Resolvin D1 Receptor DRV1). Conditions: CHO-K1 GPR32 beta-arrestin PathHunter luminescence, 90 min; at 76.9 µM; active compounds read high; zero percent set by DMSO-only wells.
UniProt O75388, sequence (O75388 whole entry, looked up): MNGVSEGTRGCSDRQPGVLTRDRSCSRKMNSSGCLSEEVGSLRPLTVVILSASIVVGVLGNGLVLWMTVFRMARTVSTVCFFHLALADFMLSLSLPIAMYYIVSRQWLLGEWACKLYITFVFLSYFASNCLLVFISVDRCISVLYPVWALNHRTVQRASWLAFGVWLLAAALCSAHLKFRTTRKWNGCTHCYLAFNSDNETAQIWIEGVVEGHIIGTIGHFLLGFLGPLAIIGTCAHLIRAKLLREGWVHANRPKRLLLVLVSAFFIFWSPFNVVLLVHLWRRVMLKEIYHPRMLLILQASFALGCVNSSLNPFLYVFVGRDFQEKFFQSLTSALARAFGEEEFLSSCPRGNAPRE
How it was run: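 Readings come from a cell-based beta-arrestin complementation format: CHO-K1 GPR32 stable cells (2,500/well) treated 90 min with compounds, then beta-Gal substrate added for 1 h before chemiluminescence imaging.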
Further: 0% is about no effect.

activation, inactive:
CCc1ccc(C(=O)c2cn(CC(=O)Nc3cccc(OC)c3)c3ccc(OC)cc3c2=O)cc1 1.31%, Cc1ccc(C(=O)N2c3ccc(C)cc3C(C)(c3ccccc3)CC2(C)C)cc1 (configuration not stated) -40.4%, CCc1cccc(NC(=O)CN2C(=O)COc3ccc(S(=O)(=O)Nc4ccccc4)cc32)c1 23.5%, CCOC(=O)c1ccc(N2C(=O)c3[nH]nc(-c4ccc(C)cc4)c3C2c2cccc(F)c2)cc1 (configuration not stated) -5.06%, COC(=O)c1ccccc1NC(=O)CSc1nc2ccccc2nc1Cc1ccccc1OC 9.45%, CCOC(=O)c1c(-c2ccc(Br)cc2)csc1NC(=O)c1ccc(F)cc1 -4.23%, CC(C)OCCCNC(=O)c1ccc2c(c1)NC(=O)c1ccccc1S2 9.51%, O=C(Nc1cc(-c2nc3ccccc3o2)ccc1Cl)c1ccc(N2CCCCC2)c([N+](=O)[O-])c1 -1.73%, O=C(CCS(=O)(=O)c1cc(Br)cc2c1N(C(=O)C1CC1)CC2)NCc1ccc(Cl)cc1 -5.78%, CN(C(=O)c1cc2nc(-c3ccco3)cc(C(F)(F)F)n2n1)c1ccc(OC(F)(F)Cl)cc1 -4.98%, CCn1c(=O)sc2cc(NS(=O)(=O)c3ccc(F)c(C)c3)ccc21 18.4%, Cc1ccc(CSc2cn(CC(=O)N3CCCC3)c3ccccc23)cc1 -5.45%, CCN(Cc1ccncc1)C(=O)C(CO)c1ccccc1 (configuration not stated) -6.41% and -6.37%, Cc1ccc(NC(=O)Cn2cc(S(=O)(=O)c3ccc(C)cc3)c(=O)c3cc4c(cc32)OCO4)cc1 -0.379%, Cc1ccc(-c2nc(SCCOc3ccccc3C)n3[nH]c(=O)cc3n2)cc1 -43.5%, COc1ccc(C2c3c(n(C)c4ccccc34)C(=O)N2CC(=O)Nc2ccc(C)c(Cl)c2)cc1 (configuration not stated) -23.8%, CCOC(=O)C1CCN(c2nc3c(S(=O)(=O)c4ccccc4)nnn3c3ccsc23)CC1 -37.2%, Nc1nc(SCc2ccc([N+](=O)[O-])cc2)c2ncn([C@@H]3O[C@H](CO)[C@@H](O)[C@H]3O)c2n1 5.72%, CCc1ccccc1N(CC)C(=O)c1c(C)oc2ncnc(N3CCOCC3)c12 -10.6%, O=c1c2oc3ccccc3c2n(Cc2ccc(Cl)cc2)c(=O)n1Cc1ccco1 -4.78%, O=C1COc2cc(S(=O)(=O)NCc3ccco3)c(Cl)cc2N1 -3.73%, CC1=C(c2ccc(C)c(C)c2)S(=O)(=O)N=C1N1CCC(C(=O)N2CCC(C(N)=O)CC2)CC1 -5.98%, COc1ccc(NC(=O)Nc2nnc(C)s2)cc1 -11.5%, Cc1ccccc1C(=O)Nc1ccc(OCc2cc(=O)n3cccc(C)c3n2)cc1 -5.12%, CCN(C(=O)C1CCC(CNS(=O)(=O)c2cccc3nsnc23)CC1)c1ccc(C)c(C)c1 (configuration not stated) -17%, CC(Sc1nc(=O)cc(N)n1CCc1ccccc1)C(=O)Nc1ccc(Cl)cc1 (configuration not stated) -13.4%, Cc1cccc(CN2CCC(CNC(=O)c3c(C)oc4ncnc(N5CCCCC5)c34)CC2)c1 -1.87%, COc1ccc(CNC(=O)c2ccc(N3CCCC3)c(NC(=O)NCc3ccc(C)cc3)c2)cc1 -24.7%, Cc1nn2c(-c3cccc(NC(=O)c4ccccc4)c3)nnc2c2ccccc12 14.7%, COc1ccc(-c2cn3c(n2)sc2cc(C(=O)Nc4ccc(C)c(C)c4)ccc23)cc1 1.83%, Cc1cccc(N2CCN(C(=O)CCc3nnc4n(CC(C)C)c(=O)c5ccccc5n34)CC2)c1C -2.98%, COc1ccc(-c2cc(C)no2)cc1S(=O)(=O)N1CCOc2ccccc21 -24.2%, O=C(Cc1ccccc1)N(Cc1cccnc1)c1nc2c(F)cc(F)cc2s1 -16.2%, O=C(Nc1cc(Cl)cc(Cl)c1)c1ccc(F)c(S(=O)(=O)N2CCc3ccccc32)c1 -5.85%, COc1ccc(CCNC(=O)c2ccc3c(c2)N(Cc2c(F)cccc2Cl)C(=O)CS3)cc1OC -18.9%, O=C(Nc1ccc(F)cc1)c1oc2ccccc2c1NC(=O)C12CC3CC(CC(C3)C1)C2 -2.51%, Cc1cccc(OC(=O)CSc2nnc(CNC(=O)c3ccccc3)o2)c1C -8.88%, CCc1ccccc1NC(=O)CN(Cc1ccccc1)S(=O)(=O)c1ccc(Br)cc1 -1.75%, CC(C)c1ccc(OCC(=O)NC(Cc2c[nH]c3ccccc23)C(=O)O)cc1 (configuration not stated) 8.31%, CCOC(=O)c1c(C)oc2ccc(N(C(=O)Oc3ccccc3)S(=O)(=O)c3ccc(CC)cc3)cc12 -14.5%, COc1cccc(NC(=O)CSC2=Nc3ccccc3C3=NC(CC(=O)NC4CCCCC4)C(=O)N23)c1 (configuration not stated) -21.9%, CCOC(=O)c1c(C)[nH]c(C)c1S(=O)(=O)N1CCC(C(=O)N2CCN(c3ccccc3F)CC2)CC1 -7.26%, COc1ccc(NC(=O)C(C)n2nc(-c3ccc(C)c(C)c3)ccc2=O)cc1OC (configuration not stated) -6.46%, CCc1nnc(SCc2cc(C)ccc2C)c2cc3sc(C)cc3n12 -18.1%, Cc1ccc2c(c1)-c1cc(C)nn1C(c1cc(Br)ccc1O)N2 (configuration not stated) -17.3%, COc1cc(OC)c(OC)cc1/C=C/c1nc2cc3ccccc3cc2c(=O)n1-c1ccc(F)cc1F -5.77%, COc1ccc(C2CC(=O)c3cc(-c4nc(-c5ccc(Cl)cc5)c(C)s4)c(=O)[nH]c3C2)cc1 (configuration not stated) 25.2%, Cc1ccc(-n2c(SCc3cccc(F)c3)nc3[nH]ncc3c2=O)cc1C -24.2%, N=C(N)c1ccccc1 13.5%, Cc1ccc2ncc(C(=O)Nc3ccc(F)cc3F)c(=O)n2c1 -4.38%, COC(=O)c1ccc2c(=O)n(CCCCCC(=O)NCc3ccc(Cl)cc3)c(=O)[nH]c2c1 -33.3%, Cc1cc(NC(=O)CCS(=O)(=O)c2cc3c4c(c2)CCN4C(=O)CC3)ccc1Br -38.4%, CC(C)(C)c1ccc(C(=O)NCC(c2cccs2)S(=O)(=O)c2ccccc2)cc1 (configuration not stated) -6.49%, CCc1ccc(CNC(=O)c2ccc(NC(=O)N3CC(C)Sc4ccccc43)cc2)cc1 (configuration not stated) -27.4%, Cc1cc(C)c2c(=O)cc(C(=O)Nc3ccccc3C(F)(F)F)oc2c1 -5.67%, CC(=O)c1ccc(N2CCN(c3ccc(NC(=O)c4ccc(F)cc4)cc3C(=O)O)CC2)cc1 8.74%, O=C(Cn1c(SCc2cccc(F)c2)nc2cccnc21)Nc1ccc(F)c(Cl)c1 0.465%, CC(=O)c1ccc(NC(=O)CCc2c(C)nc3c(c(C)nn3-c3ccc(C)cc3)c2C)cc1 -6.04%, COc1ccccc1NC(c1ccc(Cl)cc1)c1nnc(-c2cccc(F)c2)o1 (configuration not stated) -31.6%, Cc1nn2c(=O)cc(CN(C)c3ccccc3)nc2s1 -7.97%, CCOc1ccc(-c2nonc2NC(=O)c2oc3ccc(F)cc3c2C)cc1 22.8%, CC(C)(C)c1ccc(Cn2c(Cc3ccccc3)nc3ccccc32)cc1 -42.9%, O=C(COc1ccccc1Cl)Nc1cc(-c2ccccc2F)nn1-c1ccccc1 10.3%, Cc1cc(C)cc(NC(=O)CN(c2cc(C(F)(F)F)ccc2Cl)S(=O)(=O)c2ccccc2)c1 10.6%, COc1ccc(C2c3c(oc4ccccc4c3=O)C(=O)N2Cc2ccc3c(c2)OCO3)cc1 (configuration not stated) -2.94%, COC(=O)c1ccccc1NC(=O)C1=CC(c2ccc(C)cc2)=NS(=O)(=O)N1C -8.42%, O=C(CCS(=O)(=O)c1nc(-c2cccs2)cc(C(F)(F)F)n1)Nc1ccc(OC(F)(F)F)cc1 -44.2%, COc1ccc(OC)c(NC(=O)c2cc3c(n(-c4ccc(Cl)cc4)c2=O)CC(C)(C)CC3=O)c1 2.57%, CCN(CC)CCSC(=O)C(c1ccccc1)c1ccccc1 -31.1%, COc1cccc(-c2nn(C)c3sc(C(=O)NCc4cc(OC)ccc4OC)cc23)c1 -11.1%, O=C(CN1CCN(Cc2ccc(F)cc2)C1=O)NCc1ccccc1Cl 10.1%, Cc1cccc(C(=O)Nc2sc3c(c2C(=O)N2CCCCC2)CCC(C)C3)c1 (configuration not stated) -15.2%, CC(=O)N1CCOc2cc(S(=O)(=O)NC(C)c3ccccc3)c(Cl)cc21 (configuration not stated) 16.7%, O=C(CCc1cn(Cc2ccc(F)cc2)c2ccccc12)NCCc1ccc(Cl)cc1 -27.1%, Cc1oc2ccc(O)c(CN(C)Cc3ccccc3)c2c1C(=O)Nc1ccccc1 -11.9%, CCN(CC)CC#CCOC(=O)C(O)(c1ccccc1)C1CCCCC1 (configuration not stated) -14.8%, CCN(CC)CCNC(=O)c1c(C)oc2ncn(C)c(=O)c12 -9.08%, CCN(c1ccccc1)c1nnc(NC(=O)Nc2ccc(Br)cc2)s1 -2.26%, Cn1cnc(S(=O)(=O)N2CCC(C(=O)NCc3ccccc3Cl)CC2)c1 1.3%, Cc1ccc(NC(=O)Nc2nnc(N3CCCC3)s2)cc1 4.35%

activation, active:
COc1ccc(CCN2CCC(Nc3nc4ccccc4n3Cc3ccc(F)cc3)CC2)cc1 94.6%, O=S(=O)(Nc1nc2n(n1)C(c1ccc(F)cc1)C=C(c1ccccc1)N2)c1ccccc1 (configuration not stated) 96%
